Results as given in article PMC4336329 (PLoS ONE, 2015).
Out of some 310,000 compounds screened, about 14,000 (4.5%) showed an effect of 50% or more. The effect is printed as a negative number. The list shows a part of the results.

target: human ether-à-go-go-related gene (hERG) potassium channel (human, UniProt Q12809); experiment: primary screen, population patch clamp on CHO cells stably expressing hERG
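Also: peak tail current of the secondary pulse compared with the same well before compound.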

human ether-à-go-go-related gene (hERG) potassium channel, sequence (Q12809 whole entry, looked up): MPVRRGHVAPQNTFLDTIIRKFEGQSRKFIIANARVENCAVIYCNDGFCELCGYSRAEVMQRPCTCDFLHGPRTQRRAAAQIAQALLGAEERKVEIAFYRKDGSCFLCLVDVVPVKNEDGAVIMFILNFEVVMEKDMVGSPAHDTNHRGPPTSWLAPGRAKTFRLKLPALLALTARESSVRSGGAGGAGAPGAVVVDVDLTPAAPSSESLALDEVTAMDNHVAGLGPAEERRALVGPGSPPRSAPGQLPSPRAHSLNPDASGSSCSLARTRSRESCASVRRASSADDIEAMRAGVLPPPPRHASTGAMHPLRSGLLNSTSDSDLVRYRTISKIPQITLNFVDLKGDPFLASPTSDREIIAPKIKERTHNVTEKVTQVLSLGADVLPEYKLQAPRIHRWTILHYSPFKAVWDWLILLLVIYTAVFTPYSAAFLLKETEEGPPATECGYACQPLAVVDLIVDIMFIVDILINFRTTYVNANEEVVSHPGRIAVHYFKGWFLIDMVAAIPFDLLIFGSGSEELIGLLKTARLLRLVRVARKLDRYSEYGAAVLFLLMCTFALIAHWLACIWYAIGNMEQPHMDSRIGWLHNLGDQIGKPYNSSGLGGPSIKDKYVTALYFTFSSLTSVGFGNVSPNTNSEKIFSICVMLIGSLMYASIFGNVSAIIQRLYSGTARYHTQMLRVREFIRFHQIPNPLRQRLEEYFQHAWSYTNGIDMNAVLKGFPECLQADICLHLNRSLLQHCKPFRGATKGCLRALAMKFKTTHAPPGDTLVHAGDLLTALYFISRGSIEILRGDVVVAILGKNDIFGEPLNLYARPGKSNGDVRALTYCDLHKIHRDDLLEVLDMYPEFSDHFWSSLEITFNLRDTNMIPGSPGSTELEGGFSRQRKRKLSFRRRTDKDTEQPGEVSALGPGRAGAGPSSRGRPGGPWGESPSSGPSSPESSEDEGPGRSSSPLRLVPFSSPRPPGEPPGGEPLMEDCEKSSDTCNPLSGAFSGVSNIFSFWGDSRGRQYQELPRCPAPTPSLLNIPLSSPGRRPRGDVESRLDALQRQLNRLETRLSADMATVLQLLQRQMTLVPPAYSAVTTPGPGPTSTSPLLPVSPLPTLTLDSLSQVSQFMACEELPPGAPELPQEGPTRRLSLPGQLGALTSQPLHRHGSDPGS

SMILES | hERG current change (%, negative = inhibition) at 10uM [%]
Cc1cccc(-n2c(SCc3cc(=O)n4ccsc4n3)nc3ccccc32)c1 | -13
CC(C)N(C(=S)NCc1ccccc1)C(C)C | -4.24
CN(CC(O)CN)CC(O)CN1CCCCC1.Cl (centres unmarked) | 4.64
CCN(CCCNS(=O)(=O)c1ccc2c(c1)CCN2C(C)=O)c1cccc(C)c1 | 6.72
COCCN(C(=O)COC(=O)Cc1coc2cc3c(cc12)CCC3)c1c(N)n(Cc2ccccc2)c(=O)[nH]c1=O | -18.4
Cc1cccn2c(=O)c(/C=C(\C#N)C(=O)NC3CCS(=O)(=O)C3)c(Oc3ccc(F)cc3)nc12 (centres unmarked) | -14.4
CC1=C(C(=O)OCc2ccccc2)C(c2ccc(-c3ccccc3)cc2)NC(=O)N1CCCCCC(=O)O (centres unmarked) | -2.3
O=C(N/N=C\c1cn[nH]c1-c1ccccc1)c1ccc([N+](=O)[O-])cc1 | -64.9
COCCCn1c(Cc2ccccc2)nnc1SCC(=O)N1CCCCC1 | -16.1
Cc1n[nH]c(=O)c2c(NC(=O)CSc3ccc(F)cc3)oc(C)c12 | 1.69
COc1ccc(C(=O)Nc2ccc(S(=O)(=O)NC(C)(C)C)cc2)cc1[N+](=O)[O-] | 28.1
COc1ccccc1/C=C/CN1CCOCC1 | -3.9
Cn1c(=O)c2cc(S(=O)(=O)NCCC(=O)N3CC=C(c4ccccc4)CC3)ccc2n(C)c1=O | -42.1
COc1cc(Cl)c(C)cc1NC(=O)c1ccc(NS(=O)(=O)c2ccc(F)c(F)c2)cc1 | 3.36
CCCCCC(=O)Nc1cccc(C2=NOC3(C2)C[C@@H](C(N)=O)N(C(=O)c2cc([N+](=O)[O-])cc([N+](=O)[O-])c2)C3)c1 (some centres unmarked) | 7.75
Cc1cc(OC(=O)c2cccc(F)c2)c([N+](=O)[O-])c(=O)[nH]1 | -3.28
O=S(=O)(/C=C/c1ccccc1)Nc1ccc(F)cc1 | -9.4
CC(C)Oc1ccc(C2CC(=O)N(c3ccc(N(C)C)cc3)C2=O)cc1 (centres unmarked) | 11.9
O=C(NCc1cccnc1)c1ccc([N+](=O)[O-])cc1 | -17

SMILES | hERG current change (%, negative = inhibition) at 10uM [%]
CCSc1ccccc1C(=O)NC1CCCCC1 | 5.95
CCOc1cc(C2C3=C(CCCC3=O)Nc3ccc4ncccc4c32)ccc1O (centres unmarked) | 7.64
COc1ccc(N2CCN(C(=O)Cn3c(=O)[nH]c4ccsc4c3=O)CC2)cc1 | 3.63
CC(=O)c1cccc(NC(=O)COC(=O)COc2ccccc2C)c1 | 10.8
Cc1ccc(/C=C2\C(=O)NC(=S)N(c3ccc(F)cc3)C2=O)o1 | 24.7
CC(c1ccccc1)n1cncc1C(=O)N1CCCC1=O.Cl (centres unmarked) | -6.62
CC1CCN(S(=O)(=O)c2ccc(N=NC3=C(O)CC(C)(C)CC3=O)cc2)CC1 | 0.78
Cc1ccc(N(c2ncnc(N)c2[N+](=O)[O-])C2CCCCC2)cc1 | -4.49
CCOC(=O)CN1C(=O)CSc2ccccc21 | 0.699
C=CCN1N=C(/C=C/c2ccc(C)cc2)CCC1=O | 15.1
COc1ccc(F)cc1S(=O)(=O)NCCCn1ccnc1 | 22.6
Cc1cc(C)c(OC2(c3ccccc3)OC(=O)c3ccccc32)c(C)c1 (centres unmarked) | -5.57
CN1CCN(c2cc(N3CCCCCC3)c(F)cc2[N+](=O)[O-])CC1 | -25.7
O=C(c1ccccn1)N1CCN(c2ccc(C(F)(F)F)cn2)CC1 | -14.2
Cc1cc(NC(=O)CCC(=O)NNC(=O)c2ccc(C(C)(C)C)cc2)no1 | 8.03
O=S(=O)(c1ccc(Cl)cc1)n1cccn1 | 38.3
O=C(Nc1ccccc1Sc1ccccc1)c1ccc(F)cc1 | -7.65
Cc1ccc(-c2noc(CCC(=O)NC3CCCc4ccccc43)n2)cc1 (centres unmarked) | 3.69
CC1CCN(c2ccc(NC(=O)Cn3c(=O)oc4ccccc43)cc2)CC1 | 6.81

SMILES | hERG current change (%, negative = inhibition) at 10uM [%]
Cc1ccc(NC(=S)Nc2nc(CC(=O)Nc3ccccc3)cs2)cc1 | 13
O=C(CCCN1C(=O)/C(=C/c2ccccc2Cl)SC1=S)NNC(=O)c1ccncc1 | 2.34
CC1CCCN(C(=O)CCNC(=O)c2ccccc2Cl)C1 (centres unmarked) | 23.3
COc1ccc(NC(=O)c2cccc(N3C(=O)C4C5C=CC(C6CC56)C4C3=O)c2)cc1 (centres unmarked) | 2.88
CCO[C@H]1OC(C(=O)NCc2nc3ccccc3[nH]2)=C[C@@H](c2ccc(C(F)(F)F)cc2)[C@@H]1CCCO | -8.5
O=c1nc(N2CCOCC2)nc2n1CCO2 | 4.08
CCOC(=O)N/N=C\c1cccc(OC)c1 | 28.2
O=C(N=C1SC2CS(=O)(=O)CC2N1c1c(Cl)cccc1Cl)C1CC1 (centres unmarked) | 19.1
Nc1ccccc1NC(=O)c1ccccc1 | 2.34
Cc1nc(SCC(=O)OCc2ccccc2)c2c(=O)n(C)c(=O)n(C)c2n1 | 19.3
O=C(c1cc2sccc2n1Cc1ccc(F)cc1)N1CCc2ccccc21 | 14.5
Nc1c(N(CCC2=CCCCC2)C(=O)CCCOc2ccccc2)c(=O)[nH]c(=O)n1Cc1ccccc1 | -32.8
Cc1ccc(SCCC(=O)Nc2ccccc2Br)cc1 | 12.8
CCOc1ccc(NCC2CCOC(C)(C)C2)cc1 (centres unmarked) | 5.36
CCn1c(=O)n(CC)c2cc(NC(=O)CSc3ccc([N+](=O)[O-])cn3)ccc21 | -5.04
COc1ccc(-c2noc(-c3ccc(Cl)cc3)n2)cc1 | 7.42
COc1cc(C(=O)N/N=C/c2ccc3c(c2)c2ccccc2n3C)ccc1O | 8.33
CCS(=O)(=O)c1ccc(S(=O)(=O)CC)s1 | -27.3
